# Laboratory results: PubChem BioAssay (Tox21)
# “And” between values parts separate entries of the source, which are not always exact repeats. Identical values can stand only once. The inconclusive results got no clear call from the source; some entries with a clear call stand among them for comparison. Entries that show only a call come without a potency. For some of these results: Where the call is inconclusive, the potency comes from a doubtful curve fit. The source made the active and inactive calls. Unless noted, calls come from the whole dose curve; as a rule, active = well fitted curve in the direction sought with a large enough effect in the repeat runs; inconclusive = weak or mixed curves; inactive = no such curve, though single readings can be large; an effect the other way counts as inactive or inconclusive.
# Key:
# [1] = qHTS assay to identify small molecule agonists of the estrogen related receptor signaling pathway with the pleiotropic PPARgamma coactivator (PGC) from Tox21 10K library (AID 1224842); note: potency is the fitted concentration of half-maximal effect; nearly all actives have a fitted effect of over 15% in size
# Outline: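 PGC/ERR reporter cell line, 2,000 cells per well, incubated 6 h at 37 C before 23 nL compound in DMSO was added. After 18 h at 37 C, One-Glo luminescence read following 30 min at room temperature.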
# [2] = target: Androgen receptor (Homo sapiens) (UniProt P10275); test: qHTS assay to identify small molecule antagonists of the androgen receptor (AR) signaling pathway using the MDA cell line in the presence of 0.5 nM R1881 (AID 1259243); note: nearly all actives have a fitted effect of over 50% in size; note: potency is the fitted concentration of half-maximal effect
# Sequence of UniProt P10275 (P10275 whole entry, looked up): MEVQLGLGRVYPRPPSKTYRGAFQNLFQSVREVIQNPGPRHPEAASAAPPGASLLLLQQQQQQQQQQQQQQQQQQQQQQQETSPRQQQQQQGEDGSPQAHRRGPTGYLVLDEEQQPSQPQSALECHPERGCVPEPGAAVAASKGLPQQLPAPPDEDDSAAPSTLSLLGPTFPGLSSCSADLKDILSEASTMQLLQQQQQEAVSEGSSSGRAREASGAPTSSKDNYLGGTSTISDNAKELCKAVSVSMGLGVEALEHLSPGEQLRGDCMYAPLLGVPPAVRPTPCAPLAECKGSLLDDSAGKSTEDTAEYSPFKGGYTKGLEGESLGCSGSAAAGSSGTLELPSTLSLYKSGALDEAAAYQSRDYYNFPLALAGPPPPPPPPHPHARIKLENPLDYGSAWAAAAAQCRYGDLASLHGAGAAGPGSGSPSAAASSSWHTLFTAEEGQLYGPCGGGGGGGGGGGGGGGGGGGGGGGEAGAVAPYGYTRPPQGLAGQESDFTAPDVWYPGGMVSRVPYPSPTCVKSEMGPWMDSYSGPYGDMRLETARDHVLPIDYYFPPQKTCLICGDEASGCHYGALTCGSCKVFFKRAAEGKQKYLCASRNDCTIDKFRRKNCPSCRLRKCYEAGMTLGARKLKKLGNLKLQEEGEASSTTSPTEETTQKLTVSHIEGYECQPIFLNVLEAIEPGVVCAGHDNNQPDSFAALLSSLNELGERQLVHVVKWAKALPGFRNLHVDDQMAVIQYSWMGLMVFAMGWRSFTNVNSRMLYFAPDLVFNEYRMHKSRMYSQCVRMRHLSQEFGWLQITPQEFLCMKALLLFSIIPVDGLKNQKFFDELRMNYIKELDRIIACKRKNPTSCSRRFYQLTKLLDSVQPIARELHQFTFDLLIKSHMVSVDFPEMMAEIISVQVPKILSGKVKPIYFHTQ
# Outline: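 Luciferase luminescence is the read-out: compounds are tested for suppressing 0.5 nM R1881-driven MMTV reporter activity in MDA-kb2 cells after 16 hr at 37C.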
# [3] = qHTS assay to identify small molecule antagonists of the farnesoid-X-receptor (FXR) signaling pathway - cell viability counter screen (AID 743221; active = well fitted cell-killing curve with a large enough effect in the repeat runs, not every such curve was filed as active; inconclusive = weak or mixed curves, or effect the other way; inactive = no such curve, though single readings can be large or run the other way; note: nearly all actives have a fitted effect of over 50% in size; note: potency is the fitted concentration of half-maximal effect); conditions: FXR-bla HEK293T viability, CellTiter-Glo luminescence, 16 h; activity change, negative = cytotoxicity: at 62.6 µM (top of the series) unless noted
# Outline: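 After a 5 h settling period, FXR-bla HEK 293T cells receive compound and chenodeoxycholic acid (50 uM final) and incubate 16 h at 37 C; CellTiter-Glo luminescence, read after 30 min at room temperature, reports cell viability.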
# [4] = target: Estrogen receptor (Homo sapiens) (UniProt P03372); test: qHTS assay to identify small molecule agonists of the estrogen receptor alpha (ER-alpha) signaling pathway in the presence of an antagonist (AID 1259383; calls by dose curve; note: nearly all actives have a fitted effect of over 15% in size; note: potency is the fitted concentration of half-maximal effect; for activation: top concentration of the series differs between compounds)
# Sequence of UniProt P03372 (P03372 whole entry, looked up): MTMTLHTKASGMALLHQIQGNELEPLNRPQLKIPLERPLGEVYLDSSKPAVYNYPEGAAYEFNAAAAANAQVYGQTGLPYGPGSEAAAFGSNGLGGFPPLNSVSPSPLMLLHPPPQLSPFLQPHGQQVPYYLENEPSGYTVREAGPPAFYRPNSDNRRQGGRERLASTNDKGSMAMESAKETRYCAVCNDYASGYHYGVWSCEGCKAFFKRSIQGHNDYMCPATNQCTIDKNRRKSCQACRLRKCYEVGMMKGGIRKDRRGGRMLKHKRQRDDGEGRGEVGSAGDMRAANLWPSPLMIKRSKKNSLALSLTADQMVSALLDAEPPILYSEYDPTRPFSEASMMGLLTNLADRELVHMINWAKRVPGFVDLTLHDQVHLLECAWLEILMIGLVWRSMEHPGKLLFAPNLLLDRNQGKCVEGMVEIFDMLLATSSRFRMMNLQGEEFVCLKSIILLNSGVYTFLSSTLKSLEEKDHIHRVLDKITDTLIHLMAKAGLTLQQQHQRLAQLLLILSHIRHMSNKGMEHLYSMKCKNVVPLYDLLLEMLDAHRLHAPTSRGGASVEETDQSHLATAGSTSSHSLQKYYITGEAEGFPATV
# Outline: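 VM7Luc4E2, endog. ER-alpha + 4×ERE-luc; charcoal-stripped FBS, phenol red-free, 5 d; 24hr plating; +10.0nM ICI-182,780 (final); cpds 15 conc, 22hr, 37C/5% CO2; ONE-Glo luminescence.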
# Aromatase (Homo sapiens) = Aromatase (Homo sapiens) (UniProt P11511); test: qHTS assay to identify aromatase inhibitors (AID 743083); note: nearly all actives have a fitted effect of over 55% in size; note: potency is the fitted concentration of half-maximal effect
# Sequence of UniProt P11511 (P11511 whole entry, looked up): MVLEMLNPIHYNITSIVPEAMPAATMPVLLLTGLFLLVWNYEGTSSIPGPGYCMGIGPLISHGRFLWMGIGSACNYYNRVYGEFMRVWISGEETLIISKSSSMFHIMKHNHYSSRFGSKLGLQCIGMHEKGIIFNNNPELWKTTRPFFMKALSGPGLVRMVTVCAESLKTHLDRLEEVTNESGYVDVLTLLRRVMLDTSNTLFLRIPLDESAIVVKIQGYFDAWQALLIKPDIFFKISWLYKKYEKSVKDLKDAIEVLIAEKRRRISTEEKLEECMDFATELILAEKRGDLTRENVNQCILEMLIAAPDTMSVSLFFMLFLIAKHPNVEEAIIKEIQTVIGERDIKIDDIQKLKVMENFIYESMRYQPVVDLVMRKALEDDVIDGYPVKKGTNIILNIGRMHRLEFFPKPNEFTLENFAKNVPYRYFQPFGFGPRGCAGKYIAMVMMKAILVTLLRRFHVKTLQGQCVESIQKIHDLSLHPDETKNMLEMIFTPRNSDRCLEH
# [5] = target: Nuclear receptor subfamily 1 group I member 2 (Rattus norvegicus) (UniProt Q9R1A7); test: Rat pregnane X receptor (rPXR) activation by small molecules, qHTS assay (AID 1346983); conditions: rPXR luciferase reporter cells, One-Glo luminescence, 24 h; max activation: hits give high values; note: nearly all actives have a fitted effect of over 20% in size; note: potency is the fitted concentration of half-maximal effect
# Sequence of UniProt Q9R1A7 (Q9R1A7 whole entry, looked up): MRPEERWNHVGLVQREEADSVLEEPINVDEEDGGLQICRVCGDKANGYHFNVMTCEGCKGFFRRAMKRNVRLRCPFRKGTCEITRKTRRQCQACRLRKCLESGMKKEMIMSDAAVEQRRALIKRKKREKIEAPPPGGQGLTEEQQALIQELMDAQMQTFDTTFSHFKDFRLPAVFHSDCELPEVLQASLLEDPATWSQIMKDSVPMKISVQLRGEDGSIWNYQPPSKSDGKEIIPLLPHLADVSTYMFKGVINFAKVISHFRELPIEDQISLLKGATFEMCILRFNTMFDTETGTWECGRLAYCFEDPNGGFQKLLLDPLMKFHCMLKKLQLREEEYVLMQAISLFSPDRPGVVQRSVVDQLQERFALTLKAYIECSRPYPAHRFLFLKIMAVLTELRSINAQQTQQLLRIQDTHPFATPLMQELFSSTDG
# Outline: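 Cell-based rPXR activation assay: rPXR cells, 2,000 per well, rested 5hr at 37 C, then exposed to compounds in DMSO for 24 hr at 37 C. Luciferase activity read by One-Glo luminescence after 30 min at room temperature.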
# [6] = Caspase-3/7 induction in HepG2 cells by small molecules, qHTS assay (AID 1346978); note: nearly all actives have a fitted effect of over 15% in size
# Outline: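 Wild-type HepG2 cells, 2,000/well, settled 5 hr at 37 C and 5% CO2, then compound-treated for 17 hr; caspase-3/7 activity read by luminescent Caspase-Glo 3/7 after 30 min at room temperature.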
# [7] = qHTS assay to identify small molecule antagonists of the estrogen related receptor signaling pathway with the pleiotropic PPARgamma coactivator (PGC) from Tox21 10K library (AID 1224841; call rule not given here; note: actives are mostly falling curves and most rising ones were filed inactive; nearly all actives have a fitted effect of over 50% in size; note: potency is the fitted concentration of half-maximal effect)
# Outline: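 PGC/ERR cell line, 2,000 cells/well; 6 h pre-incubation 37 C/5% CO2; compounds (DMSO) pinned in; 18 h, 37 C; One-Glo, 30 min RT; luminescence.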
# [8] = A CellTox Green Cytotoxicity Assay to monitor cytotoxicity in HepG2 cells - 0 hour (AID 1224882); note: nearly all actives have a fitted effect of over 35% in size
# Outline: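 Read-out is fluorescence of a cyanine dye excluded from live cells that stains DNA of dead HepG2 cells, with signal proportional to cytotoxicity. Plates were read at 0, 8, 16, 24, 32 and 40 h after compound addition.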
# [9] = qHTS assay to identify small molecule agonists of the sonic hedgehog signaling (Shh) pathway (AID 1259368; calls by dose curve; note: nearly all actives have a fitted effect of over 15% in size; note: potency is the fitted concentration of half-maximal effect;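 for activity change: NIH/3T3-derived 3T3Gli1-Luc cells carrying a stable Gli1-driven firefly luciferase reporter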)
# Outline: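 3T3Gli1-Luc (NIH/3T3 clone, stable Gli1-Luc); 4 hr pre-incubation, then cpd in DMSO 24 hr, 37 C/5% CO2; luciferase reagent 30 min RT; luminescence.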
# [10] = A CellTox Green Cytotoxicity Assay to monitor cytotoxicity in HEK293 cells - 24 hour (AID 1224875); note: potency is the fitted concentration of half-maximal effect; nearly all actives have a fitted effect of over 45% in size
# Outline: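 Nonlytic real-time cytotoxicity: HEK293 + CellTox Green reagent plated, 5 h preincubation, pintool compound addition (23 nL in DMSO), 37 C for 40 h, fluorescence measured at successive time points.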
# [11] = qHTS assay to identify small molecule antagonists of the androgen receptor (AR) signaling pathway using the MDA cell line in the presence of 0.5 nM R1881 - cell viability counter screen (AID 1259242); note: nearly all actives have a fitted effect of over 45% in size
# Outline: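 Counter screen for cytotoxicity run in the same wells as the AR antagonist reporter screen: MDA-kb2 cells were treated 16 hr with test compounds and 0.5 nM R1881, then live-cell protease activity was measured by fluorescence.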
# [12] = qHTS assay to test for compound auto fluorescence at 460 nm (blue) in HEK293 cells (AID 720678); note: potency is the fitted concentration of half-maximal effect
# Outline: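 Intrinsic compound fluorescence is recorded in live HEK293 cultures after overnight incubation at 37C, 5% CO2, using excitation 405 nm and emission 460 nm. Values are referenced to triamterene.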
# [13] = target: Androgen receptor (Homo sapiens) (UniProt P10275); test: qHTS assay to identify small molecule agonists of the androgen receptor (AR) signaling pathway (AID 743036; active = well fitted activation curve with a large enough effect in the signal ratio in the repeat runs, with a control signal flat, not every such curve was filed as active; inconclusive = weak or mixed curves, or effect the other way; inactive = no such curve, though single readings can be large or run the other way; the % refers to the signal ratio; note: potency is the fitted concentration of half-maximal effect); conditions: HEK293 AR-UAS-bla GripTite, beta-lactamase FRET ratio, 16 h; activation: at 62.4 µM (top of the series) unless noted
# Outline: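 Cell-based FRET reporter assay: HEK293 line with a UAS-beta-lactamase construct, compounds added in DMSO, 16 h exposure at 37C, then 2 h substrate step at room temperature and fluorescence intensity read.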
# [14] = qHTS RealTime-Glo MT Cell Viability Assay in HepG2 cells - 16 hour (AID 1224885); note: nearly all actives have a fitted effect of over 50% in size
# Outline: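 Cells + NanoLuc/prosubstrate dispensed (600 cells/well) → 5 h at 37 C/5% CO2 → compounds in DMSO transferred → 40 h incubation at 37 C, luminescence read at 0, 8, 16, 24, 32, 40 h.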
# [15] = qHTS assay to identify small molecule agonists of the TGF-beta/Smad signaling pathway - cell viability counter screen (AID 1346829); note: top concentration of the series differs between compounds; nearly all actives have a fitted effect of over 45% in size
# Outline: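 After overnight seating at 37 C and 5% CO2, reporter cells got compounds for 5 hr and FRET substrate for 2 hr; cell viability then came from CellTiter-Glo luminescence.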
# [16] = Caspase-3/7 induction in CHO-K1 cells by small molecules, qHTS assay (AID 1346980); note: nearly all actives have a fitted effect of over 15% in size
# Outline: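 Wild-type CHO-K1 cells exposed to compounds for 17hr at 37 C, 5% CO2. Caspase-3/7 activity then measured by Caspase-Glo 3/7 luminescence after 30min at room temperature.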
# [17] = qHTS assay to identify small molecule agonists of the peroxisome proliferator-activated receptor delta (PPARd) signaling pathway - cell viability counter screen (AID 743211); conditions: PPARd-bla HEK293H viability, CellTiter-Glo luminescence, 17 h; activity change, negative = cytotoxicity: at 62.6 µM (top of the series) unless noted; note: nearly all actives have a fitted effect of over 55% in size
# Outline: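 qHTS cell viability: PPARd-bla HEK293H; 17 h cpd, 37C; CellTiter-Glo, luminescence at 30 min RT.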
# Tags give direction and shape of the fitted curve or compound fluorescence and quenching.
compound,measurement,setting,value
COc1cc2c(cc1OC)C(=O)C(CC1CCN(Cc3ccccc3)CC1)C2 (stereo not given),Potency,[1],inconclusive: 26.6 µM [activator]
same,Potency,[2],inactive
O=C(O)c1ccccc1C(=O)OCc1ccccc1,Potency,[3],"inconclusive: 19.5 µM [rising, partial curve, poor fit]"
same,Potency,[4],"inconclusive: 48.6 µM [activator, partial curve, poor fit]"
O=C(NCCc1c[nH]c2ccccc12)c1cccnc1,Potency,Aromatase (Homo sapiens),"inconclusive: 29.8 µM [inhibitor, single point]"
same,Potency,[5],"inconclusive: 17.8 µM [activator, partial curve, poor fit]"
CC(C)OC(=O)COc1ccc(Cl)cc1Cl,Potency,[3],inactive
CC12CCC(C1)C(C)(C)C2O (stereo not given),Potency,[4],inactive
c1ccc2c(c1)CCCC2C1=NCCN1 (stereo not given),Potency,[6],inactive
COP(=O)(OC)OC(c1ccc(Cl)cc1)P(=O)(OC)OC (stereo not given),Potency,[7],inactive
same,Potency,[8],inactive
CCn1cc(C(=O)O)c(=O)c2cnc(N3CCCC3)nc21,activity change,[9],"inactive: 1.04% [at 8.39 µM, hits give high values]"
same,caspase activation,[6],inactive: 1.75% [at 8.39 µM]
same,max activation,[5],inactive: -0.363%
Brc1ccc(Br)c(Br)c1,Potency,[10],"inconclusive: 55.3 µM [activator, single point] and inconclusive: 61.6 µM [activator, single point]"
same,Potency,[6],inactive
CN(C1CCCCC1)S(=O)(=O)c1ccccc1N,Potency,[7],"inconclusive: 48.6 µM [falling, partial curve]"
CC(C)CCCC(C)N (stereo not given),Potency,[3],inactive
COC(OC)(C(=O)c1ccccc1)c1ccccc1,Potency,[4],"inconclusive: 34.3 µM [activator, partial curve]"
Cc1ncc(CO)c(C=O)c1O,Potency,[11],inactive
O=S(=O)(O)c1ccc2cc(O)c(S(=O)(=O)O)cc2c1,Potency,[12],"inconclusive: 35.5 µM [fluorescent, single point]"
CC(C)CCOC(=O)c1ccc(N(C)C)cc1,Potency,[5],"inconclusive: 22.4 µM [activator, partial curve]"
Cc1cccc2nccnc12,Potency,[10],"inconclusive: 21.9 µM [activator, partial curve]"
O=CN1CCOCC1,Potency,[13],inactive
CC(O)C(CO)C(C)O (stereo not given),Potency,[9],inactive
C/C(=N\O)c1ccc(OCC(=O)N2CCCCC2)cc1,Potency,[9],inconclusive: 13.3 µM [activator]
same,Potency,[4],inactive
O=C(O)c1cc(Cl)cc([N+](=O)[O-])c1Cl,Potency,[2],inactive
CC(C)(C)C(=O)NCCCC(=O)O,Potency,[14],inactive
CC(C)(C)OC(=O)c1cccc(N)c1,Potency,[4],"inconclusive: 55.9 µM [activator, partial curve]"
same,Potency,[15],inactive
CC(C)(C)OC(=O)c1ccc(O)cc1,Potency,[13],"inconclusive: 17.4 µM [rising, partial curve, poor fit]"
same,Potency,[2],"inconclusive: 68.6 µM [inhibitor, single point]"
NCCCC(N)(C(=O)O)C(F)F (stereo not given),Potency,[14],inactive
same,Potency,[9],inactive
N=C(N)c1ccc2cc(OC(=O)c3ccc(N=C(N)N)cc3)ccc2c1,Potency,[2],"inconclusive: 26.6 µM [inhibitor, partial curve]"
Cc1ccc(C)c(S(=O)(=O)O)c1,Potency,[12],inactive
same,Potency,Aromatase (Homo sapiens),inactive
same,Potency,[16],inactive
COCCc1ccccn1,Potency,[17],inactive
